Assay results as given in PMC8770954 (Frontiers in Immunology, 2021).

Experiments:
Assay in all cases: SPR; imaging SPR (IBIS MX96); IgG immobilised on a carboxymethyldextran sensor (CMD200M) by carbodiimide chemistry with a Continuous Flow Microspotter, printed at 300 and 150 nM; soluble receptor as analyte from 20 uM, 1:3 over 8 points; 5 min association and 5 min dissociation; equilibrium KD (Scrubber 2)
Conditions in all cases: both partners purified
[1] = biological target: RhDH827 IgG1 (rhesusized variant of human DH827) (rhesus macaque (Macaca mulatta))
[2] = biological target: RM JR4 IgG1 (rhesus macaque mAb, C1C2 Cluster A region) (rhesus macaque (Macaca mulatta))
[3] = biological target: Rh7B2 IgG1 (rhesusized variant of human 7B2) (rhesus macaque (Macaca mulatta))
[4] = biological target: RhDH677.3 IgG1 (rhesusized variant of human DH677.3) (rhesus macaque (Macaca mulatta))

B1: human FcγRIIIa (V158) (receptor)
chain: not shown
Kd [1]: 2400 nM | Kd [2]: 1700 nM | Kd [3]: 1800 nM | Kd [4]: 800 nM
